± gives the standard deviation. The entries are a selection whose mix differs from that of the whole data set.
test system: MIWI (PIWIL1) piRISC loaded with piRNA #1 (30 nt); test: pre-steady-state target cleavage rate (min^-1); MIWI and MILI are mouse PIWI proteins and EfPiwi is from a freshwater sponge; tags in brackets are library labels; higher = faster piRNA-guided slicing of the target; settings: guide: piRNA #1 5'p-UGAGGUAGUAGGUUGUAUAGUAUCCAGAGG; auxiliary factor: 500 nM mouse GTSF1
Outline: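 A burst-and-steady-state fit was used to obtain the pre-steady-state cleavage rate. The input data were sequencing reads of uncleaved targets, normalised to depth and to weakly complementary targets, from a […] transcribed, DNA-blocked target RNA library mixed with 1 nM active affinity-purified piRISC holding one synthetic guide, with or without 500 nM GTSF1 partner protein, in HEPES–potassium acetate buffer at 33 °C for 0–8 or 0–960 min. Three trials were pooled and k3 was capped at 0.0001 min^-1.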
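Further: 1 nM active piRISC with 0.1 nM target library at 33 °C single turnover.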

Sequence	pre-steady-state target cleavage rate
GGUCUGGAUACUAUGCAACCUACUACCUCA	1.73 ± 0.12
GGAGACCUAUCUAAACAAGCUACUACCUCA	0.0359 ± 0.0095
GGAGACCAUACUAUAGAACCUACUUCCUCA	0.243 ± 0.052
CCUCUGGAUUCUAUACAACGUACUACCUCA	0.768 ± 0.038
GGAGACCAUACUAUACAAGCAACUACCUCA	0.0294 ± 0.0054
GGAGACCUUACUAUACAACCUUCUUCCUCA	0.124 ± 0.019
CCUCUGCAUACUAUACUACCUACUACCUCA	1.69 ± 0.11
GGAGACCUAUGAUAUGAACCUACUACGAGA [g5:g14:cont:t1A]	< 0.0001
GGAGACCUAUCUAUACAACCUACUACCUUCA	0.689 ± 0.067
GGACUGGAUUCUAUACAUCCUACUACCUCA	1.32 ± 0.1
GGAGACCUUACUAUACAACCUAUUACCUCA	1.63 ± 0.16
CCUCUGGAAACUAUACAACCUUCUACCUCA	0.773 ± 0.053
GGAGACCUAUGAUAUGUUCCUAGUACCUGA	< 0.0001
GGACUGGAUACAUAACAACCUACUACCUCA	0.634 ± 0.11
GGACUGGAUUCUAUACUACCUACUACCUCA	1.14 ± 0.12
GGAGACCUUACUAUACAUCCUACUAGCUCA	0.433 ± 0.041
GGAGACGAUAAUAUACAACCUACUACCUCA	1.53 ± 0.1
CCUCUGCAUACUAUACAACGUACUACCUCA	1.43 ± 0.086
GCUCUGGAUACUUUACAAGCUACUACCUCA	1.23 ± 0.064
GGUCUGGUUUCUAUACAACCUACUACCUCA	1.8 ± 0.12

Sequence	pre-steady-state target cleavage rate
GGUCUGGAUACUAUACAACGUACUACCACA	0.685 ± 0.061
GGAGACCUAUCAAUACAACCUACUACCUCA	0.139 ± 0.049
CCUCUGGAUUCUAUACAACCAACUACCUCA	0.178 ± 0.02
GGUCUGGAUACUAUACAACCUUCAACCUCA	0.16 ± 0.024
GGAGACCAUACUAUACAACCUACGUACCUCA	0.628 ± 0.041
GGAGACCUUACUAUACAAGCUACAACCUCA	0.542 ± 0.045
GGUCUCCAUACUAUACAACCUACUACCUCA	1.79 ± 0.1
GGAGACCAUACAAUAGAACCUACUACCUCA	0.448 ± 0.06
GGACUGGAUAACUAUACAACCUACUACCUCA	1.11 ± 0.087
GGAGAGGAUGACUAUACAACCUACUACCUCA	1.08 ± 0.091
GGAGACCAUACUAUCAACCUACUACCUCA	1.08 ± 0.099
CCUCUGGAUACGUAUACAACCUACUACCUCA	1.37 ± 0.083
GGAGAGGAAACUAUUCAACCUACUACCUCA	1.11 ± 0.076
GGACAGGAUACUAUACAACCUAGUACCUCA	0.394 ± 0.066
GGAGACGAAACUAUACAACCUACUACGUCA	0.691 ± 0.072
GGAGACCUAUCUAUUCAACCUACUAGCUCA	0.0859 ± 0.015
GGAGACGUUACUAUACAACCUACUAGCUCA	0.434 ± 0.047
GCUCUGGAUACUAUUCAUCCUACUACCUCA	1.42 ± 0.097
GGACUGGAUACUAUACAACCUACUACCUCA [g2:g27:cont:t1A]	1.72 ± 0.11
CCUCUGGAUACUAUACAACGUACUUCCUCA	0.316 ± 0.043

— the supplement of paper PMC10338343
